From PubChem BioAssay AID1345083 (National Center for Advancing Translational Sciences (NCATS), 2018)
Several values for one entry are separate records, joined by “and”; a condition that tells them apart may be missing. Identical values can stand only once. The whole screen tested about 94,000 compounds, of which about 6,200 (6.6%) were called active. Inconclusive results, whose numbers are uncertain, are shown with a selection of clear calls. The call rests on the fitted dose curve; in most records, active means well fitted inhibition curve with a large enough effect; inconclusive means small, poorly fitted or top-dose-only effect; inactive means flat fitted curve, though single readings scatter. Potencies of inconclusive entries are doubtful fits and often do not repeat.

Test: Cytotoxic Profiling in HEK 293 Cell Line of Diverse Libraries Using Quantitative High-Throughput Screening; further: nearly all actives have a fitted effect of over 60% in size
Settings: HEK 293 viability, ATP luminescence (CellTiter-Glo), 48-72 h; series mostly up to 115 µM
In short: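 HEK 293 seeded at 250 cells/well receive compound via pintool. After 48 or 72 hr at 37 degree Celsius, 5% CO2 and 95% humidity, CellTiter-Glo is dispensed and luminescence read following 10 min at room temperature.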
Potency means the concentration at half of the fitted maximal effect; tags describe the fitted curve by direction and shape.

**Q.** With `COCCN1C(=O)CS(=O)(=O)C12CCN(C(=O)c1cc(C)ccc1C)CC2` as the compound, how does the Potency read?
**A.** inactive

**Q.** Which Potency does the source give for `COCC(=O)NC[C@H]1OC[C@@H](NCc2ccccc2F)[C@@H]1O` here?
**A.** inconclusive: 126 µM [inhibitor, single point]

**Q.** Which Potency does the source give for `COc1ccc(NC(=O)N2CCC(CCc3nc(C4CCOCC4)no3)CC2)cc1F` here?
**A.** inconclusive: 6.31 µM [inhibitor, full curve, poor fit]

**Q.** Which Potency does the source give for `O=C(c1ccccc1Cl)N1CC(c2nc(CCc3ccccc3)no2)C1` here?
**A.** inconclusive: 70.8 µM [inhibitor, single point]

**Q.** Which Potency does the source give for `O=C(c1ccc(F)c(F)c1)N1CCC(n2cc(-c3nc(C4CC4)no3)nn2)C1` (stereo unspecified) here?
**A.** inconclusive: 56.2 µM [inhibitor, partial curve, poor fit]

**Q.** Which Potency does the source give for `CCCCCCN(CCC(=O)NCCc1ccccc1)C(=O)c1cc(C)oc1C` here?
**A.** active: 8.91 µM

**Q.** For `O=C(Nc1cc(-c2ccccn2)nn1-c1ccccc1)c1ccc(Cl)nc1`, which Potency is on record?
**A.** inactive

**Q.** With `O=C(c1ccccn1)N1CCC(N(Cc2cccnc2)C2CCOCC2)CC1` as the compound, how does the Potency read?
**A.** inactive

**Q.** For `COc1ccccc1Cn1c(=O)c(C(=O)N2CCC(Cc3ccccc3)CC2)nc2cccnc21`, which Potency is on record?
**A.** inconclusive: 28.2 µM [inhibitor, partial curve, poor fit]

**Q.** Which Potency does the source give for `COCC(=O)N[C@H]1C[C@H]2C(=O)Nc3ccc(/C=C/c4ccc(OC)cc4)cc3C(=O)N2C1` here?
**A.** inconclusive: 89.1 µM [inhibitor, single point]

**Q.** For `CCOC(=O)C1=C(C)N=C2SC=C(CC(=O)N3CCCC3)N2C1c1cccc(C)c1` (stereo unspecified), which Potency is on record?
**A.** inconclusive: 50.1 µM [inhibitor, partial curve, poor fit]

**Q.** Which Potency does the source give for `O=C1c2c(nc(COc3ccc(F)cc3)n2Cc2ccccc2)NCCN1Cc1ccccc1` here?
**A.** inconclusive: 50.1 µM [inhibitor, partial curve, poor fit]

**Q.** Which Potency does the source give for `COc1cc(Cl)c(C)cc1NC(=O)Cn1c(C)cc2nc3n(c(=O)c21)CCCCC3` here?
**A.** inconclusive: 79.4 µM [inhibitor, single point]

**Q.** For `CCCN1CCCC12Cc1ccccc1CN(C(=O)CCNC(C)=O)C2` (stereo unspecified), which Potency is on record?
**A.** inactive

**Q.** For `COc1cccc(-c2cc(C3CCN(C(=O)NC4CCCC4)CC3)[nH]n2)c1`, which Potency is on record?
**A.** inconclusive: 35.5 µM [inhibitor, full curve]

**Q.** For `O=C1NCc2ccccc2CC12CCCN2Cc1ccc(Cl)s1` (stereo unspecified), which Potency is on record?
**A.** inconclusive: 56.2 µM [inhibitor, partial curve, poor fit]

**Q.** With `CS(=O)(=O)N1CCCC1c1noc(CCC(=O)NCC2CC2)n1` (stereo unspecified) as the compound, how does the Potency read?
**A.** inactive

**Q.** With `Cc1[nH]cnc1CN1CCNc2cc(Nc3ccccc3)ncc2C1` as the compound, how does the Potency read?
**A.** inconclusive: 31.6 µM [inhibitor, partial curve, poor fit]

**Q.** For `O=C(O)C[C@@H]1CCN(C(=O)c2ccc(C(F)(F)F)cc2)C[C@@H]1CCN1CCN(c2ccc(F)cc2)CC1`, which Potency is on record?
**A.** inactive

**Q.** With `COCCN1CCCCCC(O)c2cc(C(=O)NCCc3c[nH]c4ccccc34)ccc21` (stereo unspecified) as the compound, how does the Potency read?
**A.** inconclusive: 50.1 µM [inhibitor, partial curve, poor fit]

**Q.** For `CC1=C[C@@H](CN2CCN(C)CC2)[C@H](C(C)C)C[C@H]1Cc1nnc(-c2ccc(C)cc2)o1`, which Potency is on record?
**A.** active: 28.2 µM

**Q.** For `CC(C(=O)N1CCN(c2cc(-c3ccccc3)[nH]n2)CC1)c1ccccc1` (stereo unspecified), which Potency is on record?
**A.** inconclusive: 50.1 µM [inhibitor, partial curve, poor fit]

**Q.** For `CN1CCN(c2ncnc3sc4c(c23)CCN(Cc2ccco2)C4)CC1`, which Potency is on record?
**A.** inactive

**Q.** Which Potency does the source give for `CC(C)Cn1c(=O)c(C(=O)NCc2ccccc2Cl)nc2cccnc21` here?
**A.** inconclusive: 79.4 µM [inhibitor, partial curve, poor fit]

**Q.** Which Potency does the source give for `CN1CCC2(C1)CN(CC1CCOCC1)c1ccc(C(=O)NCCc3ccccc3)cc12` (stereo unspecified) here?
**A.** inconclusive: 100 µM [inhibitor, partial curve]

**Q.** For `COc1ccccc1-c1ccc(C(=O)N2CCC(NC(=O)c3cccc(Cl)c3)CC2)cc1`, which Potency is on record?
**A.** inconclusive: 39.8 µM [inhibitor, full curve] and inconclusive: 79.4 µM [inhibitor, partial curve]

**Q.** For `CO[C@H]1CN(C2CCN(C(=O)Nc3ccccc3F)CC2)[C@H]1c1ccncc1`, which Potency is on record?
**A.** inactive

**Q.** For `O=C(NCc1cccc(C(F)(F)F)c1)C1CN(c2cccc(Cl)c2)C(=O)N1` (stereo unspecified), which Potency is on record?
**A.** inconclusive: 89.1 µM [inhibitor, partial curve, poor fit]

**Q.** With `CCOCc1nc(C2CCCN(C(=O)c3cccc(C)c3)C2)no1` (stereo unspecified) as the compound, how does the Potency read?
**A.** inactive

**Q.** With `COCCC(=O)N1CC[C@H](c2nc3ccccc3o2)C1` as the compound, how does the Potency read?
**A.** inactive

**Q.** Which Potency does the source give for `COc1ccc(CNC(=O)c2nc3nc(-c4ccccc4)c(Cl)cc3n2C)cc1OC` here?
**A.** inconclusive: 35.5 µM [inhibitor, full curve]

**Q.** With `CS(=O)(=O)Cc1ccc(-c2cccc(OCc3ccccc3F)c2)nc1` as the compound, how does the Potency read?
**A.** inconclusive: 89.1 µM [inhibitor, single point]

**Q.** For `O=C(CCC1CCN(S(=O)(=O)c2ccccc2)CC1)NCc1ccccn1`, which Potency is on record?
**A.** inactive

**Q.** For `CNC(=O)c1c(-c2cnn(C)c2NCCc2ccccc2)noc1C`, which Potency is on record?
**A.** inconclusive: 126 µM [inhibitor, single point]

**Q.** With `CCOC(=O)C1(Cc2cccc(OC)c2)CCCN(Cc2cccc(C)n2)C1` (stereo unspecified) as the compound, how does the Potency read?
**A.** inconclusive: 89.1 µM [inhibitor, single point]

**Q.** For `COc1ccc(-c2ccc3ncc(Nc4cc(F)ccc4OC)n3n2)cn1`, which Potency is on record?
**A.** inconclusive: 39.8 µM [inhibitor, partial curve, poor fit]

**Q.** With `CNC(=O)c1cc(-c2cnn(C)c2)cc2c1OCCN2Cc1cccnc1` as the compound, how does the Potency read?
**A.** inactive

**Q.** With `CCN1c2cc(C(=O)Nc3ccc(OC(F)(F)F)cc3)ccc2C(=O)N2CCCC21` (stereo unspecified) as the compound, how does the Potency read?
**A.** inconclusive: 50.1 µM [inhibitor, partial curve, poor fit]

**Q.** Which Potency does the source give for `CC1(COCC2CC2)COc2ccc(C(=O)N3CCOCC3c3cccc(F)c3)cc2N1` (stereo unspecified) here?
**A.** inconclusive: 100 µM [inhibitor, partial curve]

**Q.** For `Cn1cccc1CN1CCC2(CC1)CN(Cc1ccccc1)CC2CO` (stereo unspecified), which Potency is on record?
**A.** inconclusive: 39.8 µM [inhibitor, full curve, poor fit]

**Q.** For `CCc1nc2c(c(-c3ccc(Cl)cc3)n1)CN(C(=O)c1ccccc1)CC2`, which Potency is on record?
**A.** inconclusive: 31.6 µM [inhibitor, partial curve, poor fit]
